Measurements from PubChem BioAssay AID2546 (National Center for Advancing Translational Sciences (NCATS), 2010).
The campaign covered roughly 310,000 compounds. About 11,000 (3.5%) were called active. The inconclusive results got no clear call from the source; some entries with a clear call stand among them for comparison. The call rests on the fitted dose curve; in most records, active means well fitted inhibition curve with a large enough effect; inconclusive means small, poorly fitted or top-dose-only effect, or effect the other way; inactive means flat fitted curve, though single readings scatter. No potency is given beside an inconclusive call; the fits are too rough.
On the % scale 0 is the no-effect control and ±100 the full control effect; potency means the concentration at half of the fitted maximal effect; tags describe the fitted curve by direction and shape.

Assay: VP16 counterscreen qHTS for inhibitors of ROR gamma transcriptional activity;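 further: Gal4-VP16 expression switched on by copper sulfate through the metallothionein promoter; nearly all actives have a fitted effect of over 50% in size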
Conditions: Drosophila S2 Gal4-VP16 UAS-luciferase, luminescence, 20 h; activity, negative = inhibition: at 53.6 µM (top of the series)
In the case of `COc1cc(OC)cc(C(=O)Nc2ccc(NC(=O)c3ccco3)c(C)c2)c1`, the Potency was inconclusive [inhibitor, full curve].
With `COc1ccc(C(=O)NC(=S)NCCc2ccccc2)cc1` the Potency was inconclusive [inhibitor, single point].
With `C[C@H](CCC(=O)O)[C@H]1CC[C@H]2[C@H]3C(C[C@H](O)[C@]12C)[C@@]1(C)CC[C@@H](O)C[C@H]1C[C@H]3O` (stereo not given in full) the Potency was “inactive”.
With `Cc1ccc(-n2nc(-c3ccc(OC(F)(F)F)cc3)cc2N)cc1C` the Potency was inconclusive [inhibitor, single point].
For `Cc1ccc(NN=Nc2nc3c([nH]2)c(=O)n(C)c(=O)n3C)cc1`, the Potency was inconclusive [activator, single point].
With `O=C(c1ccc(OC2CCN(Cc3ccccc3C(F)(F)F)CC2)cc1)N1CCCCC1` the Potency was inconclusive [inhibitor, partial curve].
With `CCOC(=O)c1ccc(Oc2nc(N(C)C)nc(N3CCOCC3)n2)cc1` the Potency was “inactive”.
With `Cc1cccc(C(=O)Nc2nnc(S(=O)(=O)N3CCOCC3)s2)c1` the Potency was “inactive”.
In the case of `Cc1c(Cl)cccc1NC(=S)N(Cc1cccs1)C1CCCC1`, the Potency was inconclusive [inhibitor, single point].
For `C=CCN1c2ccccc2[C@]23C[C@@H](C(=O)OC)N(C(=O)c4cccs4)C2=NC(C(=O)OC)=C(C(=O)OC)[C@H]13`, the Potency was inconclusive [inhibitor, single point].
With `CCOC(=O)N/N=C/c1c(C)c(C(=O)c2ccc(F)cc2)n2ccccc12` the Potency was inconclusive [inhibitor, single point].
In the case of `O=C1CCC2S/C(=C/Nc3ccc(C(F)(F)F)cc3)C(=O)N12` (stereo not given), the Potency was inconclusive [inhibitor, partial curve].
In the case of `CC(=O)c1cccc(NC(=O)Nc2cccs2)c1`, the Potency was inconclusive [inhibitor, single point].
With `O=C(NC1CCC(=O)N(CCSc2ccccc2)CC1)OCc1ccccc1` (stereo not given) the Potency was “inactive”.
For `O=C(CCCOc1ccccc1)N1CCN(c2ccccn2)CC1`, the Potency was inconclusive [inhibitor, partial curve].
In the case of `CC(C)Oc1ccc(CCNC(=O)C2CCC(=O)N(Cc3cccc(F)c3)C2)cc1` (stereo not given), the Potency was inconclusive [activator, single point].
With `Cn1nccc1C(=O)Oc1cccc(/C=N/NC(=O)c2ccccc2O)c1` the Potency was inconclusive [inhibitor, single point].
In the case of `Cc1c(N=Cc2nc3ccccc3[nH]2)c(=O)n(-c2ccccc2)n1C`, the Potency was “inactive”.
For `N/C(=N\OC(=O)c1ccc2c(c1)OCO2)c1ccncc1`, the Potency was inconclusive [inhibitor, single point].
In the case of `NS(=O)(=O)c1ccc(CNC(=O)CSc2nc3ccc(Cl)cc3[nH]2)cc1`, the Potency was “inactive”.
With `COc1ccc(/C=C/C2=Nc3ccccc3NC(C)(C)C2)cc1OC` the Potency was inconclusive [activator, partial curve].
With `CNC(=O)c1c(C)noc1C` the Potency was “inactive”.
With `CN(c1ccccc1)S(=O)(=O)c1ccc(NC(=O)C2CC2)cc1` the Potency was “inactive”.
In the case of `COc1ccccc1NC(=S)NNC(=O)c1ccc(O)cc1`, the Potency was inconclusive [inhibitor, single point].
In the case of `COc1ccc(NC(=O)c2cc3ccccc3[nH]2)cc1`, the Potency was “inactive”.
With `Cc1n[nH]c(=S)n1/N=C/c1ccccc1OCc1ccc(Cl)cc1Cl` the Potency was active: 7.08 µM.
With `CC(=O)c1sc(NC(=O)c2ccccc2F)nc1C` the Potency was inconclusive [inhibitor, single point].
In the case of `COc1cc(C=Nc2cccc(C)c2)c(O)c([N+](=O)[O-])c1`, the Potency was “inactive”.
In the case of `O=C1OC(Nc2ncccn2)c2ccccc21` (stereo not given), the Potency was “inactive”.
In the case of `CCOC(=O)c1[nH]c2c(c1C)C(=O)CC(c1ccco1)C2` (stereo not given), the Potency was “inactive”.
With `CC(c1ccco1)N(C(=O)c1cccc(Br)c1)c1ccccn1` (stereo not given) the Potency was inconclusive [activator, single point].
With `Cc1ccc2nc(C(F)(F)F)c(C#N)c(N)c2c1` the Potency was “inactive”.
For `COC(=O)c1[nH]c2ccc(C)cc2c1NC(=O)CN1CCN(c2ccc(F)cc2)CC1`, the Potency was active: 12.6 µM.
With `C=CCN(c1ccccc1)S(=O)(=O)c1cccc(C(=O)Nc2nc3ccccc3[nH]2)c1` the Potency was active: 4.47 µM.
In the case of `Cc1ccc2c(c1)c1n[nH]c(=S)nc1n2CCc1ccccc1`, the Potency was inconclusive [inhibitor, full curve].
With `CCCCN1CNC(=S)N(CCc2ccc(OCC)c(OCC)c2)C1` the Potency was active: 14.1 µM.
With `COc1ccc(CN2C(=O)c3ccccc3C2=O)cc1` the Potency was inconclusive [activator, single point].
In the case of `COc1ccc(CC(=O)Nc2ccc(-c3noc(-c4cc(OC)c(OC)c(OC)c4)n3)cc2)cc1`, the Potency was inconclusive [inhibitor, single point].
In the case of `CCOC(=O)CSC1=C(C#N)C(c2ccc(OC)cc2)C2=C(CC(C)(C)CC2=O)N1` (stereo not given), the Potency was active: 20 µM.
In the case of `COc1ccc(OCC(O)CNCc2ccco2)cc1` (stereo not given), the Potency was “inactive”.
For `CCC(=O)NC(=S)Nc1cccc(NC(=O)c2ccccc2)c1`, the Potency was inconclusive [inhibitor, single point].
In the case of `Cc1cccc(C(=O)NC(=S)NNC(=O)COc2ccc(Cl)cc2)c1`, the Potency was inconclusive [inhibitor, single point].
In the case of `CC(=O)C1=C(c2cccc([N+](=O)[O-])c2)N(C(C)=O)n2c(C)nnc2S1`, the Potency was inconclusive [inhibitor, single point].
In the case of `COc1ccc(C(=O)CNc2ccccc2Br)cc1`, the Potency was inconclusive [inhibitor, partial curve].
With `Cc1ccc(NC(=S)N/N=C/c2c(Cl)cccc2Cl)c(C)c1` the Potency was active: 0.891 µM.
In the case of `COc1cc2c(cc1NS(=O)(=O)N1CCCCC1)oc1ccccc12`, the Potency was inconclusive [inhibitor, single point].
For `Cc1ccccc1NC(=S)N1CCOCC1`, the Potency was “inactive”.
For `CC(C)c1ccc(N=C2NN=C(c3cccs3)CS2)cc1`, the Potency was inconclusive [inhibitor, single point].
With `CN(C1CCCCC1)S(=O)(=O)c1ccc(NC(=S)NC(=O)c2cccs2)cc1` the Potency was inconclusive [inhibitor, single point].
For `O=C(NNC1=Nc2ccccc2SC1)c1ccc(Cl)cc1`, the Potency was active: 5.62 µM.
With `COC(=O)COc1ccc(/C=N/NC(=O)CN(c2ccccc2OC)S(=O)(=O)c2ccccc2)cc1` the Potency was “inactive”.
With `C=CC1=C(C(=O)O)N2C(=O)C(NC(=O)/C(=N\O)c3csc(N)n3)C2SC1` (stereo not given) the Potency was inconclusive [inhibitor, partial curve].
For `Cc1cccc(/C=N/NC(=O)Cc2cccs2)c1`, the Potency was “inactive”.
With `C/C(=C\C(=S)Nc1ccccc1)Nc1cccc2ccccc12` the Potency was inconclusive [inhibitor, single point].
With `COc1ccccc1-c1nnc(SC/C(O)=C(\C#N)c2nc3ccccc3[nH]2)n1C1CCCCC1` the Potency was active: 11.2 µM.
For `Cc1ccc(Nc2cc(-c3ccccc3)nc3ncnn23)cc1`, the Potency was inconclusive [inhibitor, single point].
For `CCc1c(C)nc2cc(-c3cc(OC)cc(OC)c3)nn2c1N1CCN(CCN2CCOCC2)CC1`, the Potency was inconclusive [inhibitor, single point].
In the case of `CCCN1C(=O)c2ccc(C(=O)NCc3ccco3)cc2C1=O`, the Potency was “inactive”.
For `O=C(Nc1c2c(nn1-c1ccccc1)CS(=O)C2)c1ccc(Br)o1` (stereo not given), the Potency was “inactive”.
With `COc1cccc(-c2noc(CCC(=O)NC3CCCC3)n2)c1` the Potency was inconclusive [activator, single point].
With `O=C(CSc1nc2ccccc2s1)NNC(=O)Nc1ccc(Cl)c(Cl)c1` the activity, negative = inhibition was inactive: 27.5% [at 0.365 µM].
With `C/C(=C/C(=O)O)C(=O)Nc1cccc(C(F)(F)F)c1` the Potency was inconclusive [activator, single point].
For `O=C(CSc1nncs1)NC(=O)Nc1ccc2c(c1)OCCO2`, the Potency was inconclusive [activator, partial curve].
With `COc1ccc(NC(=O)N2CCCC3(CCN(C(=O)c4ccc(OC)cc4)CC3)C2)cc1` the Potency was “inactive”.
With `CC(=O)c1cccc(-n2c(CCC(=O)O)ccc2-c2ccccc2)c1` the Potency was “inactive”.
With `O=C(Nc1cccc(-c2csc(Nc3cccc(C(F)(F)F)c3)n2)c1)c1ccccc1` the Potency was “inactive”.
In the case of `S=c1nc(-c2ccccc2)[nH]n1-c1ccccc1`, the Potency was active: 11.2 µM.
In the case of `CCN1C(=O)c2cccc3c(NS(=O)(=O)c4ccc(NC(C)=O)cc4)ccc1c23`, the Potency was inconclusive [inhibitor, single point].
For `O=C(NCc1cccc(Cl)c1)c1cccc(C(F)(F)F)c1`, the Potency was “inactive”.
With `Cc1ccc(C(=O)NC(=S)NCCN2CCOCC2)cc1` the Potency was inconclusive [inhibitor, single point].
With `CCN(CC)CCNc1ncnc2c1sc1nc(N3CCOCC3)c3c(c12)CCCC3` the Potency was inconclusive [inhibitor, partial curve].
For `NC(=O)c1ccccc1OCc1nnc(-c2ccccc2Br)o1`, the Potency was inconclusive [inhibitor, partial curve].
In the case of `CCOC(=O)C(=O)N/N=C/c1ccco1`, the Potency was “inactive”.
For `Cc1ccccc1NS(=O)(=O)c1cc(C(=O)Nc2cccc([N+](=O)[O-])c2)ccc1C`, the Potency was inconclusive [inhibitor, single point].
In the case of `O=C(CCNc1ccccc1)c1cccc([N+](=O)[O-])c1`, the Potency was inconclusive [inhibitor, single point].
